In the supplement of paper PMC8728848:
The other results are listed elsewhere or left out.

Experiments:
Assay in all cases: glycan array binding signal (z-score within array); higher = stronger binding
Conditions in all cases: glycan notation: IUPAC condensed, linker removed
[1] = target: Fuc(a1-2)[Gal(a1-3)]Gal(b1-4)GlcNAc(b1-2)Man(a1-3)[Fuc(a1-2)[Gal(a1-3)]Gal(b1-4)GlcNAc(b1-2)Man(a1-6)]Man(b1-4)GlcNAc(b1-4)GlcNAc
How it was run: (§1)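 Arrays were curated from the Consortium for Functional Glycomics database, 3228 in total, and kept only where the protein sequence was available. Binding is expressed as a within-array Z-score. This score was averaged across arrays of the same protein sequence at different concentrations or buffers and across linkers, and negative values can be read as non-binding.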

[2] = target: Fuc(a1-2)[Gal(a1-3)]Gal(b1-4)GlcNAc(b1-2)Man(a1-3)[Fuc(a1-2)[Gal(a1-3)]Gal(b1-4)GlcNAc(b1-2)Man(a1-6)]Man(b1-4)GlcNAc(b1-4)[Fuc(a1-6)]GlcNAc
How it was run: as §1

[3] = target: Fuc(a1-2)[Gal(a1-3)]Gal(b1-4)GlcNAc(b1-3)GalNAc
How it was run: as §1

[4] = target: Fuc(a1-2)[Gal(a1-3)]Gal(b1-4)GlcNAc(b1-6)GalNAc
How it was run: as §1

[5] = target: Fuc(a1-2)[Gal(a1-3)]Gal(b1-4)[Fuc(a1-3)]Glc
How it was run: as §1

[6] = target: Fuc(a1-2)[Gal(a1-3)]Gal(b1-4)[Fuc(a1-3)]GlcNAc
How it was run: as §1

[7] = target: Fuc(a1-2)[Gal(a1-3)]Gal(b1-4)[Fuc(a1-3)]GlcNAc(b1-3)GalNAc
How it was run: as §1

[8] = target: Fuc(a1-2)[Gal(a1-4)]Gal(b1-4)GlcNAc
How it was run: as §1

[9] = target: Fuc(a1-2)[GalNAc(a1-3)]Gal
How it was run: as §1

[10] = target: Fuc(a1-2)[GalNAc(a1-3)]Gal(b1-3)GalNAc(a1-3)[Fuc(a1-2)]Gal(b1-4)GlcNAc
How it was run: as §1

[11] = target: Fuc(a1-2)[GalNAc(a1-3)]Gal(b1-3)GalNAc(b1-3)Gal(a1-4)Gal(b1-4)Glc
How it was run: as §1

[12] = target: Fuc(a1-2)[GalNAc(a1-3)]Gal(b1-3)GlcNAc
How it was run: as §1

[13] = target: Fuc(a1-2)[GalNAc(a1-3)]Gal(b1-3)GlcNAc(b1-2)Man(a1-3)[Fuc(a1-2)[GalNAc(a1-3)]Gal(b1-3)GlcNAc(b1-2)Man(a1-6)]Man(b1-4)GlcNAc(b1-4)GlcNAc
How it was run: as §1

[14] = target: Fuc(a1-2)[GalNAc(a1-3)]Gal(b1-3)GlcNAc(b1-2)Man(a1-3)[Fuc(a1-2)[GalNAc(a1-3)]Gal(b1-3)GlcNAc(b1-2)Man(a1-6)]Man(b1-4)GlcNAc(b1-4)[Fuc(a1-6)]GlcNAc
How it was run: as §1

[15] = target: Fuc(a1-2)[GalNAc(a1-3)]Gal(b1-3)GlcNAc(b1-3)GalNAc
How it was run: as §1

[16] = target: Fuc(a1-2)[GalNAc(a1-3)]Gal(b1-3)GlcNAc(b1-6)GalNAc
How it was run: as §1

[17] = target: Fuc(a1-2)[GalNAc(a1-3)]Gal(b1-4)Glc
How it was run: as §1

[18] = target: Fuc(a1-2)[GalNAc(a1-3)]Gal(b1-4)GlcNAc
How it was run: as §1

[19] = target: Fuc(a1-2)[GalNAc(a1-3)]Gal(b1-4)GlcNAc(b1-2)Man
How it was run: as §1

[20] = target: Fuc(a1-2)[GalNAc(a1-3)]Gal(b1-4)GlcNAc(b1-2)Man(a1-3)[Fuc(a1-2)[GalNAc(a1-3)]Gal(b1-4)GlcNAc(b1-2)Man(a1-6)]Man(b1-4)GlcNAc(b1-4)GlcNAc
How it was run: as §1

[21] = target: Fuc(a1-2)[GalNAc(a1-3)]Gal(b1-4)GlcNAc(b1-2)Man(a1-3)[Fuc(a1-2)[GalNAc(a1-3)]Gal(b1-4)GlcNAc(b1-2)Man(a1-6)]Man(b1-4)GlcNAc(b1-4)[Fuc(a1-6)]GlcNAc
How it was run: as §1

[22] = target: Fuc(a1-2)[GalNAc(a1-3)]Gal(b1-4)GlcNAc(b1-3)Gal(b1-4)GlcNAc
How it was run: as §1

[23] = target: Fuc(a1-2)[GalNAc(a1-3)]Gal(b1-4)GlcNAc(b1-3)Gal(b1-4)GlcNAc(b1-3)Gal(b1-4)GlcNAc
How it was run: as §1

[24] = target: Fuc(a1-2)[GalNAc(a1-3)]Gal(b1-4)GlcNAc(b1-3)GalNAc
How it was run: as §1

[25] = target: Fuc(a1-2)[GalNAc(a1-3)]Gal(b1-4)GlcNAc(b1-3)[Fuc(a1-2)[GalNAc(a1-3)]Gal(b1-4)GlcNAc(b1-6)]GalNAc
How it was run: as §1

[26] = target: Fuc(a1-2)[GalNAc(a1-3)]Gal(b1-4)GlcNAc(b1-6)GalNAc
How it was run: as §1

[27] = target: Fuc(a1-2)[GalNAc(a1-3)]Gal(b1-4)[Fuc(a1-3)]GlcNAc
How it was run: as §1

[28] = target: Fuc(a1-2)[GalNAc(a1-3)]Gal(b1-4)[Fuc(a1-3)]GlcNAc(b1-3)GalNAc
How it was run: as §1

[29] = target: Fuc(a1-2)[GalNAc(a1-4)]Gal(b1-4)GlcNAc
How it was run: as §1

[30] = target: Fuc(a1-2)[GalNAc(b1-3)]Gal
How it was run: as §1

Fuc(a1-3)GlcNAc = target: Fuc(a1-3)GlcNAc
How it was run: as §1

[31] = target: Fuc(a1-3)[Gal(b1-4)]Glc6S
How it was run: as §1

[32] = target: Fuc(a1-3)[Gal(b1-4)]GlcNAc
How it was run: as §1

[33] = target: Fuc(a1-3)[Gal(b1-4)]GlcNAc(b1-2)Man
How it was run: as §1

[34] = target: Fuc(a1-3)[Gal(b1-4)]GlcNAc(b1-2)Man(a1-3)[Fuc(a1-3)[Gal(b1-4)]GlcNAc(b1-2)Man(a1-6)]Man(b1-4)GlcNAc(b1-4)GlcNAc
How it was run: as §1

[35] = target: Fuc(a1-3)[Gal(b1-4)]GlcNAc(b1-2)Man(a1-3)[Fuc(a1-3)[Gal(b1-4)]GlcNAc(b1-2)Man(a1-6)]Man(b1-4)GlcNAc(b1-4)[Fuc(a1-6)]GlcNAc
How it was run: as §1

[36] = target: Fuc(a1-3)[Gal(b1-4)]GlcNAc(b1-3)Gal(b1-3)[Fuc(a1-4)]GlcNAc
How it was run: as §1

[37] = target: Fuc(a1-3)[Gal(b1-4)]GlcNAc(b1-3)Gal(b1-4)[Fuc(a1-3)]GlcNAc
How it was run: as §1

[38] = target: Fuc(a1-3)[Gal(b1-4)]GlcNAc(b1-3)Gal(b1-4)[Fuc(a1-3)]GlcNAc(b1-3)Gal(b1-4)[Fuc(a1-3)]GlcNAc
How it was run: as §1

[39] = target: Fuc(a1-3)[Gal(b1-4)]GlcNAc(b1-3)GalNAc
How it was run: as §1

[40] = target: Fuc(a1-3)[Gal(b1-4)]GlcNAc(b1-6)GalNAc
How it was run: as §1

[41] = target: Fuc(a1-3)[Gal(b1-4)]GlcNAc(b1-6)[Gal(b1-3)GlcNAc(b1-3)]Gal(b1-4)Glc
How it was run: as §1

[42] = target: Fuc(a1-3)[Gal(b1-4)]GlcNAc6S
How it was run: as §1

[43] = target: Fuc(a1-3)[Gal3S(b1-4)]Glc
How it was run: as §1

[44] = target: Fuc(a1-3)[Gal3S(b1-4)]GlcNAc
How it was run: as §1

[45] = target: Fuc(a1-3)[Gal3S(b1-4)]GlcNAc6S
How it was run: as §1

[46] = target: Fuc(a1-3)[GalNAc(b1-4)]GlcNAc
How it was run: as §1

[47] = target: Fuc(a1-3)[GalNAc(b1-4)]GlcNAc6S
How it was run: as §1

Fuc(a1-4)GlcNAc = target: Fuc(a1-4)GlcNAc
How it was run: as §1

Fuc(b1-3)GlcNAc = target: Fuc(b1-3)GlcNAc
How it was run: as §1

Gal(a1-2)Gal = target: Gal(a1-2)Gal
How it was run: as §1

Gal(a1-3)Gal = target: Gal(a1-3)Gal
How it was run: as §1

Gal(a1-3)Gal(b1-3)GlcNAc = target: Gal(a1-3)Gal(b1-3)GlcNAc
How it was run: as §1

[48] = target: Gal(a1-3)Gal(b1-3)GlcNAc(b1-2)Man
How it was run: as §1

[49] = target: Gal(a1-3)Gal(b1-3)GlcNAc(b1-2)Man(a1-3)[Gal(a1-3)Gal(b1-3)GlcNAc(b1-2)Man(a1-6)]Man(b1-4)GlcNAc(b1-4)GlcNAc
How it was run: as §1

[50] = target: Gal(a1-3)Gal(b1-3)GlcNAc(b1-3)GalNAc
How it was run: as §1

[51] = target: Gal(a1-3)Gal(b1-3)GlcNAc(b1-6)GalNAc
How it was run: as §1

[52] = target: Gal(a1-3)Gal(b1-3)[Fuc(a1-4)]GlcNAc(b1-2)Man(a1-3)[Gal(a1-3)Gal(b1-3)[Fuc(a1-4)]GlcNAc(b1-2)Man(a1-6)]Man(b1-4)GlcNAc(b1-4)GlcNAc
How it was run: as §1

Gal(a1-3)Gal(b1-4)Glc = target: Gal(a1-3)Gal(b1-4)Glc
How it was run: as §1

Gal(a1-3)Gal(b1-4)GlcNAc = target: Gal(a1-3)Gal(b1-4)GlcNAc
How it was run: as §1

B1: Langerin K313I (Homo sapiens), Q9UJ71 (protein)
chain: STLNAQIPELKSDLEKASALNTKIRALQGSLENMSKLLKRQNDILQVVSQGWKYFKGNFYYFSLIPKTWYSAEQFCVSRNSHLTSVTSESEQEFLYKTAGGLIYWIGLTKAGMEGDWSWVDDTPFNKVQSARFWIPGEPNNAGNNEHCGNIKAPSLQAWNDAPCDITFLFICKRPYVPSEP
glycan array binding signal (z-score) [1]: -0.102
glycan array binding signal (z-score) [2]: 0.266
glycan array binding signal (z-score) [3]: 0.065
glycan array binding signal (z-score) [4]: -0.149
glycan array binding signal (z-score) [5]: -0.335
glycan array binding signal (z-score) [6]: -0.052
glycan array binding signal (z-score) [7]: 0.214
glycan array binding signal (z-score) [8]: -0.287
glycan array binding signal (z-score) [9]: 1.78
glycan array binding signal (z-score) [10]: -0.36
glycan array binding signal (z-score) [11]: -0.245
glycan array binding signal (z-score) [12]: -0.341
glycan array binding signal (z-score) [13]: -0.153
glycan array binding signal (z-score) [14]: 0.282
glycan array binding signal (z-score) [15]: 0.155
glycan array binding signal (z-score) [16]: -0.207
glycan array binding signal (z-score) [17]: -0.326
glycan array binding signal (z-score) [18]: -0.393
glycan array binding signal (z-score) [19]: -0.222
glycan array binding signal (z-score) [20]: 0.057
glycan array binding signal (z-score) [21]: 0.559
glycan array binding signal (z-score) [22]: -0.287
glycan array binding signal (z-score) [23]: 0.16
glycan array binding signal (z-score) [24]: -0.021
glycan array binding signal (z-score) [25]: -0.146
glycan array binding signal (z-score) [26]: -0.352
glycan array binding signal (z-score) [27]: 0.325
glycan array binding signal (z-score) [28]: 0.321
glycan array binding signal (z-score) [29]: -0.352
glycan array binding signal (z-score) [30]: -0.358
glycan array binding signal (z-score) (Fuc(a1-3)GlcNAc): -0.279
glycan array binding signal (z-score) [31]: 0.4
glycan array binding signal (z-score) [32]: -0.29
glycan array binding signal (z-score) [33]: -0.001
glycan array binding signal (z-score) [34]: -0.128
glycan array binding signal (z-score) [35]: 0.327
glycan array binding signal (z-score) [36]: -0.256
glycan array binding signal (z-score) [37]: 0.123
glycan array binding signal (z-score) [38]: -0.366
glycan array binding signal (z-score) [39]: 0.17
glycan array binding signal (z-score) [40]: 0.314
glycan array binding signal (z-score) [41]: -0.328
glycan array binding signal (z-score) [42]: 0.132
glycan array binding signal (z-score) [43]: 0.101
glycan array binding signal (z-score) [44]: -0.187
glycan array binding signal (z-score) [45]: -0.028
glycan array binding signal (z-score) [46]: -0.257
glycan array binding signal (z-score) [47]: -0.256
glycan array binding signal (z-score) (Fuc(a1-4)GlcNAc): -0.37
glycan array binding signal (z-score) (Fuc(b1-3)GlcNAc): -0.307
glycan array binding signal (z-score) (Gal(a1-2)Gal): -0.155
glycan array binding signal (z-score) (Gal(a1-3)Gal): -0.236
glycan array binding signal (z-score) (Gal(a1-3)Gal(b1-3)GlcNAc): -0.36
glycan array binding signal (z-score) [48]: -0.333
glycan array binding signal (z-score) [49]: 0.188
glycan array binding signal (z-score) [50]: -0.137
glycan array binding signal (z-score) [51]: 0.02
glycan array binding signal (z-score) [52]: 0.468
glycan array binding signal (z-score) (Gal(a1-3)Gal(b1-4)Glc): -0.295
glycan array binding signal (z-score) (Gal(a1-3)Gal(b1-4)GlcNAc): -0.394
